# Test results: PubChem BioAssay AID2675 (National Center for Advancing Translational Sciences (NCATS), 2010)
# In all, about 280,000 compounds went through this assay and about 100 (0.036%) were called active. This list was built around the results that the source calls inconclusive (neither active nor inactive); the mix of calls is not that of the screen. Calls come from the whole dose curve; as a rule, active = well fitted inhibition curve with a large enough effect in the signal ratio, with a control signal flat (not every such curve was filed as active); inconclusive = small, poorly fitted or top-dose-only effect, or effect the other way, or a change in a side signal; inactive = no such curve, though single readings can be large or run the other way; the % refers to the signal ratio. Potencies of inconclusive entries are doubtful fits and often do not repeat. “Side channel” marks fits to a control or component signal instead of the main read-out.
# Biological target: Muscleblind-like protein 1 (Homo sapiens) (UniProt Q9NR56)
# Assay: qHTS Assay for Inhibitors of MBNL1-poly(CUG) RNA binding
# Details: TR-FRET MBNL1-His/biotin-(CUG)12 binding, 665/545 ratio; series mostly up to 57.5 µM
# Procedure, shortened: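 Compound titration spanned 92 nM–58 uM against the MBNL1-His/biotin-(CUG)12 complex. After 60 min at room temperature with 5 nM streptavidin-XL665 and 0.055 ng/ul terbium anti-His, ratiometric 665/545 nm emission (Ex 340 nm) normalized to controls.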
# Potency is the fitted concentration of half-maximal effect; tags give direction and shape of the fitted curve or compound fluorescence and quenching.
# UniProt Q9NR56, sequence (Q9NR56 whole entry, looked up): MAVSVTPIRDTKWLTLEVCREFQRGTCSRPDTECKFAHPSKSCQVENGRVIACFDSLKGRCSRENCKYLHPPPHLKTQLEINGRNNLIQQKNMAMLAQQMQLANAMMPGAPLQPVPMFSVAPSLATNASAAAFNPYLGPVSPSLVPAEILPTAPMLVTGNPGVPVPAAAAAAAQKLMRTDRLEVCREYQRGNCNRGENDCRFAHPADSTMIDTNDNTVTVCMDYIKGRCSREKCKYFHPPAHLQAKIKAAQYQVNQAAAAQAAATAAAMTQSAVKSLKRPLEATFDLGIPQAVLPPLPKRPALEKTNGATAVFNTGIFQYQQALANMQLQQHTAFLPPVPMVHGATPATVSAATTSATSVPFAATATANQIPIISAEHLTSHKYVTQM
row,Compound,Potency
1,S=C(NC1CC2CCC1C2)N1CCN(c2cccc(Cl)c2)CC1 (stereo not given),inactive
2,COc1ccc(NC(C)=O)cc1NC(C)c1nc2sc(C)c(C)c2c(=O)[nH]1 (stereo not given),inactive
3,O=C(CCN1C(=O)c2ccncc2C1=O)Nc1ccc(F)cc1,"inconclusive: 15.8 µM [quencher, side channel, partial curve]"
4,CCN(CC)CCCNC(=O)c1cc(Sc2nnc(C)s2)nc2ccccc12,"inconclusive: 39.8 µM [quencher, side channel, partial curve]"
5,CC(=O)c1cc2ccc(O)cc2oc1=O,"inconclusive: 11.2 µM [quencher, side channel, partial curve]"
6,Cc1occc1C(=O)N/N=C/C=C/c1ccc(N(C)C)cc1,"inconclusive: 14.1 µM [quencher, side channel, partial curve]"
7,O=[N+]([O-])c1ccccc1S(=O)(=O)Oc1ccc(/C=N/n2cnnc2)cc1,"inconclusive: 8.91 µM [quencher, side channel, partial curve]"
8,CN(CC(=O)Nc1cccc(F)c1)CC(=O)Nc1ccc(Cl)cc1[N+](=O)[O-],"inconclusive: 17.8 µM [quencher, side channel, partial curve]"
9,CCN(CC)C1CCN(C(=O)c2cc(COc3ccc(-n4cncn4)cc3)on2)C1 (stereo not given),inactive
10,Cc1cc[n+](-c2[nH]c(=O)sc2/C=N/NC(=O)c2ccccc2[O-])cc1C,"inconclusive: 39.8 µM [quencher, side channel, partial curve]"
11,COc1cccc(/C=N/NC(=O)C(=O)N2CCCC2)c1O,"inconclusive: 31.6 µM [quencher, side channel, single point]"
12,COc1ccc(C(=O)Nc2cccnc2)cc1C(=O)Nc1cccnc1,"inconclusive: 100 µM [inhibitor, partial curve, poor fit]"
13,CCOC(=O)C=Nc1c(N)n(C)c(=O)n(C)c1=O,inactive
14,CC(=O)Oc1ccccc1N(C(C)=O)S(=O)(=O)c1cccc([N+](=O)[O-])c1,"inconclusive: 22.4 µM [quencher, side channel, partial curve]"
15,O=C(N/N=C\c1ccncc1)c1ccc(Cl)s1,"inconclusive: 25.1 µM [quencher, side channel, partial curve]"
16,Cc1ccc(S(=O)(=O)c2cc3c(=O)n4cccc(C)c4nc3n(Cc3ccncc3)c2=N)cc1,"inconclusive: 3.98 µM [quencher, side channel, single point]"
17,CSc1oc(-c2ccccc2)nc1S(=O)(=O)c1ccc(F)cc1,inactive
18,COc1cc(NC(=O)C2CCCN2C(=O)C2CCC(C)CC2)cc(OC)c1OC (stereo not given),"inconclusive: 1.41 µM [quencher, side channel, full curve]"
19,CN(Cc1ccc2nonc2c1)Cc1nc(Cc2cccc(F)c2)no1,"inconclusive: 28.2 µM [quencher, partial curve]"
20,COc1ccc(-c2csc3nc(C)nc(N4CCCCC4)c23)cc1OC,inactive

row,Compound,Potency
1,Cc1cccc(NC(=S)N(c2ccccc2)C(C)C)c1C,"inconclusive: 3160 µM [inhibitor, partial curve, poor fit]"
2,NC1=C(c2ccccc2)C(=O)NC1=O,"inconclusive: 14.1 µM [quencher, side channel, partial curve]"
3,Cc1ccc([N+](=O)[O-])cc1S(=O)(=O)Nc1ccc(N2CCOCC2)cc1,"inconclusive: 20 µM [quencher, side channel, partial curve]"
4,COc1cc(NCCCCCCCN)c2ncccc2c1,"inconclusive: 3.16 µM [inhibitor, full curve]"
5,O=C(c1cccs1)c1no[n+]([O-])c1C(=O)c1cccs1,inactive
6,NC(=O)c1oc2ccccc2c1NC(=O)c1ccc([N+](=O)[O-])o1,"inconclusive: 5.01 µM [quencher, side channel, full curve]"
7,CC(=O)NN1C(=O)c2ccc(Oc3cccc([N+](=O)[O-])c3)cc2C1=O,"inconclusive: 15.8 µM [quencher, side channel, partial curve]"
8,O=C(NNC(=O)c1cccc(Br)c1)C(=O)N1CCCCC1,"inconclusive: 100 µM [inhibitor, single point]"
9,COCCOC(=O)/C(=C/c1ccc(OC(=O)c2ccccc2)cc1)C(C)=O,inactive
10,Cc1ccccc1C(=O)Nc1cccc(NC(=O)c2ccccc2[N+](=O)[O-])c1,"inconclusive: 20 µM [quencher, single point]"
11,COc1cc(C(=S)N2CCOCC2)ccc1OC(=O)c1ccc([N+](=O)[O-])cc1[N+](=O)[O-],"inconclusive: 14.1 µM [quencher, side channel, partial curve]"
12,COc1cc([N+](=O)[O-])ccc1NC(=O)CCCOc1cc(C)ccc1C,"inconclusive: 0.891 µM [quencher, side channel, single point]"
13,CC(C)c1ccc(CNCCCSc2ncccn2)cc1,inactive
14,NS(=O)(=O)c1ccc(N=C2C(=O)Nc3ccccc32)cc1,"inconclusive: 14.1 µM [quencher, side channel, partial curve]"
15,O=C1/C(=C/c2ccco2)Cc2ccccc21,"inconclusive: 14.1 µM [quencher, side channel, partial curve]"
16,Fc1ccc(/C=N/n2c(C3CCCCC3)n[nH]c2=S)cc1,inactive
17,CCCOC(=O)/C(=C\c1ccc([N+](=O)[O-])o1)NC(=O)c1ccccc1,"inconclusive: 39.8 µM [quencher, single point]"
18,COc1ccc(CCNC(=O)C2CCN(C(=O)c3ccc([N+](=O)[O-])cc3)CC2)cc1,"inconclusive: 25.1 µM [quencher, side channel, partial curve]"
19,COc1ccc(C(=O)N2CCN(Cc3ccccc3[N+](=O)[O-])CC2)cc1,"inconclusive: 35.5 µM [quencher, side channel, single point]"
20,COc1ccc(C2CC(c3ccccc3OC(C)=O)=NN2C(=O)/C=C/c2ccccc2)cc1OC (stereo not given),"inconclusive: 3.16 µM [quencher, side channel, full curve, poor fit]"
